Reference: paper PMC6919601, “Identification of Plasmodium dipeptidyl aminopeptidase allosteric inhibitors by high throughput screening” (PLoS ONE, 2019)
In all, about 110,000 compounds went through this assay and about 230 (0.21%) showed an effect of 50% or more. Some of the results follow.
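Note: 30 min substrate incubation versus DMSO and 10 µM JCP410 controls.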

Each compound was assayed against DPAP1 (Plasmodium falciparum, UniProt Q8IIJ9) (assay: primary screen, percent inhibition; read by cleavage of a fluorogenic dipeptide substrate; higher = more effect of the substance).
Chain of DPAP1 (Q8IIJ9 whole entry, looked up): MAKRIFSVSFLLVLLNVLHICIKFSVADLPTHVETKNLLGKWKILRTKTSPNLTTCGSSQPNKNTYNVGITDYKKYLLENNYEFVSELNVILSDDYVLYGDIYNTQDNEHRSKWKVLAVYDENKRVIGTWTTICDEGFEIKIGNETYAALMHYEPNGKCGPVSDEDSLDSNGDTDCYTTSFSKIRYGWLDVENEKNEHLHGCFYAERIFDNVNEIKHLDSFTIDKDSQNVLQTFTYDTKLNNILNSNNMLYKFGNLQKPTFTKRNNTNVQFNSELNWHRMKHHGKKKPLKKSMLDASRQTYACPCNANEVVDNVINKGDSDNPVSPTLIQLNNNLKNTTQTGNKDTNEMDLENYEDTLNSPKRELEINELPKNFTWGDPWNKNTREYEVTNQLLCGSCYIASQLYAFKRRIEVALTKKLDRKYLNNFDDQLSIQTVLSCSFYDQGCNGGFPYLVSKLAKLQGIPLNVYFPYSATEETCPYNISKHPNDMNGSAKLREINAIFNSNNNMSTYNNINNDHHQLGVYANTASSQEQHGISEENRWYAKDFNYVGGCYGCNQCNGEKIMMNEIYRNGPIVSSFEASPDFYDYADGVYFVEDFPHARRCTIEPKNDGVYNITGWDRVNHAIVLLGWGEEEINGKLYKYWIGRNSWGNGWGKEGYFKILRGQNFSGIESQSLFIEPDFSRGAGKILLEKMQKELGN
Design: species or system P. falciparum D10 trophozoite lysates; single well
For `COCCN1C(=O)c2[nH]nc(-c3ccccc3O)c2C1c1ccc(O)c(OC)c1` (centres unmarked), the “% Inhibition @ 10 uM” value was 0.366%.
In the case of `Cc1nn(-c2ccccc2)c(Cl)c1C1C(C#N)=C(N)Oc2[nH]nc(-c3ccccc3)c21` (centres unmarked), the “% Inhibition @ 10 uM” value is reported as -1.84%.
For `CC(C)CS(=O)(=O)C1=NN2C(=N)/C(=C\c3cccc4ccccc34)C(=O)N=C2S1`, the “% Inhibition @ 10 uM” value was -3.58%.
In the case of `Cn1c(=O)c2cn(Cc3ccc(Cl)cc3)cc2n(C)c1=O`, the “% Inhibition @ 10 uM” value is reported as -3.96%.
In the case of `Cc1cc2nc(C)n(Cc3ccccc3F)c2cc1C`, the “% Inhibition @ 10 uM” value is reported as 0.596%.
For `CCOC(=O)N1CCN(CN2C(=O)/C(=N\c3ccc(C)cc3)c3ccccc32)CC1`, the “% Inhibition @ 10 uM” value was 1.02%.
For `COc1ccc(Nc2nc3nonc3nc2Nc2ccc(F)cc2)c(OC)c1`, the “% Inhibition @ 10 uM” value was 3.95%.
In the case of `FC(F)(F)c1cccc(N2CCN(Cc3ccc(Br)s3)CC2)c1`, the “% Inhibition @ 10 uM” value is reported as -5.57%.
For `O=C(c1ccc2c(c1)C(=O)N(c1ccccn1)C2=O)N1CCc2ccccc2C1`, the “% Inhibition @ 10 uM” value was 1.62%.
For `O=C(SCc1ccccn1)c1ccccc1`, the “% Inhibition @ 10 uM” value was -4.49%.
In the case of `CCOCCc1c(O)nc(SCC(=O)NCc2ccco2)nc1O`, the “% Inhibition @ 10 uM” value is reported as -3.41%.
For `Cc1ccc2oc(C(=O)Nc3sc4c(c3C#N)CCCC4)cc(=O)c2c1`, the “% Inhibition @ 10 uM” value was -3.24%.
`CCNC(=S)N1CCN(CC/N=C/C2=C(O)CC(c3ccccc3)CC2=O)CC1` (centres unmarked) was tested, and the “% Inhibition @ 10 uM” value was 4.01%.
For `COc1cc(/C=C2/C(=N)N3C=CSC3=NC2=O)cc(OC)c1OCCOc1ccccc1Cl`, the “% Inhibition @ 10 uM” value was -7.23%.
With `Cc1nn(CC(=O)N2CCCC2)c(=O)c2nn(-c3ccccc3)c(C)c12` the “% Inhibition @ 10 uM” value was -6.73%.
With `CCCSc1ncc(Cl)c(C(=O)Nc2sc3c(c2C(=O)NC)CCCC3)n1` the “% Inhibition @ 10 uM” value was -4.02%.
For `N#CC1(C#N)[C@H](C(N)=O)[C@H]1c1ccccc1`, the “% Inhibition @ 10 uM” value was -3.13%.
For `O=C(COc1ccc2ccccc2c1Br)N1CCCCCC1`, the “% Inhibition @ 10 uM” value was -2.22%.
`O=C(Cn1c(=O)n(Cc2ccco2)c(=O)c2sc3ccccc3c21)NCCCc1ccccc1` was tested, and the “% Inhibition @ 10 uM” value was 1.02%.
`COc1cccc(CNCCc2ccc(Cl)cc2)c1OC` was tested, and the “% Inhibition @ 10 uM” value was 0.214%.
In the case of `COc1ccc2nc(NC(=O)CSc3nc4cc(C)ccc4[nH]3)sc2c1`, the “% Inhibition @ 10 uM” value is reported as 25.6%.
For `COc1ccc(C2C(C(=O)c3ccc(F)cc3)=C(O)C(=O)N2CCCCCC(=O)O)c(OC)c1` (centres unmarked), the “% Inhibition @ 10 uM” value was -0.178%.
For `CCN1CCN(Cc2c(O)ccc3ccccc23)CC1`, the “% Inhibition @ 10 uM” value was -1.41%.
`O=C(c1cnn(-c2ccc(F)cc2)c1-n1cccc1)N1CCOCC1` was tested, and the “% Inhibition @ 10 uM” value was -5%.
For `CCC(/N=c1/c(-c2ccccc2)c(O)c1=O)c1cccs1` (centres unmarked), the “% Inhibition @ 10 uM” value was -2.57%.
With `COc1ccc(NC(=O)CN(c2ccc(OC)c(OC)c2)S(C)(=O)=O)cc1` the “% Inhibition @ 10 uM” value was 0.324%.
`COc1ccccc1C(=O)N(Cc1ccc(C)cc1)Cc1ccco1` was tested, and the “% Inhibition @ 10 uM” value was 1.25%.
`CCS(=O)(=O)Nc1c(NC)c2ccccc2oc1=O` was tested, and the “% Inhibition @ 10 uM” value was 0.454%.
In the case of `Cc1cc(-c2ccc(S(=O)(=O)NCc3ccc(Cl)cc3)s2)on1`, the “% Inhibition @ 10 uM” value is reported as 3.74%.
In the case of `Cn1c(=O)c(Sc2ccc(Cl)cc2)c(O)c2ccccc21`, the “% Inhibition @ 10 uM” value is reported as 2.37%.
For `CC(C)(CC(NC(=O)c1ccc(-c2ccccc2Cl)cc1)C(=O)NCC#N)c1ccccc1` (centres unmarked), the “% Inhibition @ 10 uM” value was -5.42%.
For `COc1ccc(C(=O)C2=C(O)C(=O)N(CCCN3CCOCC3)C2c2cccc(O)c2)cc1F` (centres unmarked), the “% Inhibition @ 10 uM” value was -3.72%.
For `CC(=O)Nc1ccc(S(=O)(=O)N2CCN(c3cc(Cl)ccc3Cl)CC2)cc1`, the “% Inhibition @ 10 uM” value was 3.35%.
With `O=C(NCc1ccccc1Cl)C1CCN(S(=O)(=O)c2ccccc2)CC1` the “% Inhibition @ 10 uM” value was 2.17%.
For `CN1CCN(c2nc(-c3ccc(C(=O)NC(C(=O)NCC#N)C(C)(C)F)cc3)cs2)CC1` (centres unmarked), the “% Inhibition @ 10 uM” value was -1.41%.
In the case of `CCc1c(C(=O)NCc2ccc(F)cc2)[nH]c(C)c1C(C)=O`, the “% Inhibition @ 10 uM” value is reported as -4.96%.
`Cc1noc(/C=C/N(C)C)c1S(=O)(=O)N1CCC(C(=O)NC2CCCc3ccccc32)CC1` (centres unmarked) was tested, and the “% Inhibition @ 10 uM” value was -4.69%.
For `COc1ccc(NC(=O)c2ccccc2NC(=O)c2ccco2)cc1`, the “% Inhibition @ 10 uM” value was 0.528%.
`CC(=O)c1ccc(N2CCN(Cc3ccco3)CC2)cc1` was tested, and the “% Inhibition @ 10 uM” value was -6.12%.
With `O=C(Nc1cccnc1Cl)c1cc(C2CC2)on1` the “% Inhibition @ 10 uM” value was -7.85%.
In the case of `Cc1cc(/C=C2/NC(=O)NC2=O)c(C)n1-c1ccc2ccccc2c1`, the “% Inhibition @ 10 uM” value is reported as -3.06%.
In the case of `COc1ccc(CCNC(=O)COCc2cc(-c3ccc4c(c3)OCO4)on2)cc1OC`, the “% Inhibition @ 10 uM” value is reported as 2.37%.
With `CC(C)C(=O)c1ccc(OCCOc2ccc(C#N)cc2)cc1` the “% Inhibition @ 10 uM” value was 0.997%.
In the case of `CCOCCCNc1oc(COc2ccc(F)cc2)nc1C#N`, the “% Inhibition @ 10 uM” value is reported as -0.958%.
For `Cn1c(=O)c2c(ncn2Cc2cccc3ccccc23)n(C)c1=O`, the “% Inhibition @ 10 uM” value was -1.47%.
For `O=C(NCC1CCCO1)c1ccc2c(c1)sc1nc(-c3ccccc3)cn12` (centres unmarked), the “% Inhibition @ 10 uM” value was 12.7%.
In the case of `CN(C)c1ccc(C2CC(c3ccccc3)=NN2c2ccccc2)cc1` (centres unmarked), the “% Inhibition @ 10 uM” value is reported as -7.12%.
With `O=C(/C=C/c1ccccc1)Nc1nnc(CSCc2ccccc2F)s1` the “% Inhibition @ 10 uM” value was 1.58%.
In the case of `CCN(CC)CCNc1ncccn1`, the “% Inhibition @ 10 uM” value is reported as -3.77%.
In the case of `Cn1c(=O)c2c(nc(N3CCOCC3)n2CCN)n(C)c1=O`, the “% Inhibition @ 10 uM” value is reported as 2.01%.
